# According to article PMC4336329 (PLoS ONE, 2015):
# In all, about 310,000 compounds went through this assay and about 2,200 (0.71%) showed an effect of 50% or more. The effect is printed as a negative number. The list shows a part of the results.
# Biological target: human ether-à-go-go-related gene (hERG) potassium channel (human, UniProt Q12809)
# Assay: primary screen, population patch clamp on CHO cells stably expressing hERG
# Sequence of human ether-à-go-go-related gene (hERG) potassium channel (Q12809 whole entry, looked up): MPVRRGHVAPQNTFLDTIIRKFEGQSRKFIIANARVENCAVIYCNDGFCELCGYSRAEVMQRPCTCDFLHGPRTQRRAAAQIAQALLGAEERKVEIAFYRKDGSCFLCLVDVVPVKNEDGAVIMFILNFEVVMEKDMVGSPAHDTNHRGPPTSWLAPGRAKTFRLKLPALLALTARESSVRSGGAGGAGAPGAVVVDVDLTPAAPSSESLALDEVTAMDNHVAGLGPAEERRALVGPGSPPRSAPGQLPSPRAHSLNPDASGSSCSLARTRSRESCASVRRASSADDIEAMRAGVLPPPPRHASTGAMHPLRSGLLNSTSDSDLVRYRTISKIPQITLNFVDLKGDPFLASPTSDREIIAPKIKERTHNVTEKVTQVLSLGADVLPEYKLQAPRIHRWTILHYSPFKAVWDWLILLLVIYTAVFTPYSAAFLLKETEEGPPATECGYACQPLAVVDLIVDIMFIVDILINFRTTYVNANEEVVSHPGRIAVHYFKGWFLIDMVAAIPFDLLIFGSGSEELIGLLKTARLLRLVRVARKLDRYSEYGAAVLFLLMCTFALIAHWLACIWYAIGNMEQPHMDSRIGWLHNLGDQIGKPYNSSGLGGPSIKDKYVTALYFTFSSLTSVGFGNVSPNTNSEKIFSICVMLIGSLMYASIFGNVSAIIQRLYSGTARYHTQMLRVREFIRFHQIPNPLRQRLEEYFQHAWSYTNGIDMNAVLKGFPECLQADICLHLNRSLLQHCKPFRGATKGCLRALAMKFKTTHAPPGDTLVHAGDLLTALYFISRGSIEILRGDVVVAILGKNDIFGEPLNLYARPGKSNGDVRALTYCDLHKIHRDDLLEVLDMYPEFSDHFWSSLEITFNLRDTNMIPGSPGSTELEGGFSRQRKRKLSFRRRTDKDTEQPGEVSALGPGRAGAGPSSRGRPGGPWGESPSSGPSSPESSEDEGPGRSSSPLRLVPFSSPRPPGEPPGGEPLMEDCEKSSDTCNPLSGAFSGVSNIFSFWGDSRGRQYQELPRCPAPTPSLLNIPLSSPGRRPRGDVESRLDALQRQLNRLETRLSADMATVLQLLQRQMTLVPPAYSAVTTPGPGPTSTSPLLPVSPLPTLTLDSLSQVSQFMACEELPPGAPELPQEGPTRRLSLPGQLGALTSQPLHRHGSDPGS
row,SMILES,"hERG current change (%, negative = inhibition) at 1uM [%]"
1,Cc1nc2ccccn2c1C(=O)NCc1cccnc1,8.09
2,O=C(CSCc1c(F)cccc1Cl)NCCSCc1ccco1,8.74
3,COc1ccc(N2CCN(C(c3cccc(OC)c3OC)c3nnnn3C3CCCC3)CC2)cc1.Cl (stereo not shown),10.1
4,COc1ccc(S(=O)(=O)N2CCCC(C(=O)NCCC3=CCCCC3)C2)cc1 (stereo not shown),6.97
5,CCN(CC)CC(O)Cn1c2ccccc2c2ccccc21 (stereo not shown),5.23
6,CC1(OC(=O)CCc2ccccc2)C(=O)C=C2C=C(c3ccc(C#N)cc3)N(Cc3ccco3)C=C2C1=O (stereo not shown),1.55
7,CCc1nc2ccccc2nc1N1CCN(S(=O)(=O)c2ccccc2)CC1,11.9
8,COc1ccc(CN(C)C(=O)COC(=O)c2c(-c3ccccc3Cl)noc2C)cc1,0.987
9,CCC(C)(C)NC(=O)C(c1ccccn1)N(C(=O)c1csnn1)c1ccc(C)cc1 (stereo not shown),-3.03
10,O=C(CSc1nnc(NC2CC2)s1)NN1C(=O)NC2(CCCCC2)C1=O,-3.09
11,CCCC(=O)Nc1nc(-c2ccccc2)ns1,-1.24
12,Cc1ccc(S(=O)(=O)N(C)Cc2ccc(C(=O)NN=C3C4CC5CC(C4)CC3C5)cc2)cc1,15.7
13,COc1c(C)cccc1C(=O)Nc1cc(-c2nn3c(C)nnc3s2)ccc1C,5.17
14,CC(=O)N1CCn2c3ccc(C)cc3c3cccc1c32,-0.708
15,CC1CCCCN1CCn1c(=S)[nH]c2ncccc2c1=O (stereo not shown),7.28
16,COc1cc(/C=C(\C#N)C(=O)NC2CCCCC2)ccc1OCc1ccc(C(=O)O)cc1,4.19
17,O=[N+]([O-])c1ccc(-c2ccc(/C=N/Nc3nc(NCc4ccccc4)nc(N4CCOCC4)n3)o2)cc1,3.24
18,COc1ccc2c(C)cc(SCC(=O)NCC3CCCO3)nc2c1 (stereo not shown),-2.57
19,CCOc1[nH]n(-c2ccc(Cl)cc2)c(=O)c1C=NCc1cccnc1,-3.73
20,COC(=O)c1c(C)nc2nonc2c1N,12.4
21,CCOC(=O)c1sc(NC(=O)CSc2ncn(-c3ccccc3)n2)nc1C,7.04
22,O=C1CCN(C(=O)Nc2ccccc2)N1,20.4
23,COc1cccc(/C=N/NC(=O)c2nnn(-c3nonc3N)c2C(C)C)c1OCc1ccc(F)cc1,20.8
24,O=C(COC(=O)c1cccnc1Cl)c1ccc(OC(F)F)cc1,8.73
25,Cc1ccc(-n2c(SCC(=O)N3CCOCC3)nnc2-c2cccnc2)cc1C,1.52
26,COc1ccc(NCC(=O)Nc2ccccc2C#N)cc1Cl,-2.15
27,CC(=O)NCC(=O)OCC(=O)Nc1ccc(C(C)=O)cc1,5.9
28,O=C(NCCO)/C(=C\c1cccs1)NC(=O)c1cccs1,11.1

row,SMILES,"hERG current change (%, negative = inhibition) at 1uM [%]"
1,CC(C)CCNC(=O)c1nn(Cc2ccccc2)c(=O)c2ccccc12,9.89
2,O=C(NCC1COc2ccccc2O1)C1CCCN(S(=O)(=O)c2cnc[nH]2)C1 (stereo not shown),7.43
3,O=C(c1ccc2c3c(cccc13)CC2)C1CCCN(C(=O)c2cc[n+]([O-])cc2)C1 (stereo not shown),5.99
4,Cc1ccc(-n2nnnc2-c2cnc3ccc(Cl)cc3c2-c2ccccc2)cc1,-4.96
5,O=C(N/N=C/c1cccnc1)c1cc(O)c(O)c(O)c1,17.4
6,COc1ccc(S(=O)(=O)Nc2cccc(SC)c2)cc1OC,4.22
7,CCCn1c(=S)[nH]c2cc(C(=O)N3CCc4ccccc4C3)ccc2c1=O,13.7
8,O=C(Cc1ccccc1)N/N=C/c1ccccc1Cl,4.81
9,CSCC[C@H](NC(=O)[C@@H]1CSC2c3ccccc3C(=O)N21)C(=O)NC1CCCC1 (stereo partly shown),2.62
10,CCOC(=O)Cn1nc(C)c(NC(=O)COc2cccc(Cl)c2)c1C,4.07
11,O=C(CSCc1ccccc1Cl)NN=C1CCCCCC1,3.24
12,CN(C(=O)c1cccc(NC(=O)c2cccs2)c1)c1ccccc1,4.18
13,Clc1ccc(OCCN2CCN(c3ncnc4sccc34)CC2)cc1,-43.1
14,C=CCN(Cc1ccc(Cl)s1)C(=O)CNC(=O)CNC(=O)c1ccc(Cl)cc1Cl,-35.4
15,CC[C@H](C)/C=C/C1=CC2=C(Cl)C(=O)[C@@]3(C)OC(=O)C(C(=O)[C@H](C)[C@@H](C)O)=C3C2=CO1,17.2
16,CCOC(=O)Cc1cc(=O)n2[nH]c(C)c(-c3ccccc3)c2n1,0.22
17,COC(=O)COc1ccc(NC(=O)c2ccco2)cc1,13.5
18,Cc1ccc(S(=O)(=O)N2CCCC2)cc1C(=O)N1CCN(Cc2ccccc2)CC1,3.33
19,CC(=O)c1cccc(N(C(=O)Cn2nnc3ccccc32)C(C(=O)NCc2ccccc2)c2ccccn2)c1 (stereo not shown),-0.747
20,CN(CC(=O)Nc1ccccc1Cl)CC(=O)Nc1sc2c(c1C(N)=O)CCC2,-24.7
21,COc1cc(CCNC(=O)c2cnn3ccccc23)cc(OC)c1OC,5.48
22,COc1ccc(NC(=O)CN2CCN(S(=O)(=O)c3ccc(F)cc3)CC2)cc1Cl,7.03
23,O=C(O)/C=C/c1ccccc1Oc1ccc(Cl)cc1Cl,-1.05
24,Cc1ccc(C(=O)CSc2nnc(C(C)C)n2C)cc1C,7.82
25,COc1ccc(COCC(CC(C)C)N2CCN(C(=O)c3cccc(C(F)(F)F)c3)CCC2=O)cc1 (stereo not shown),5.89
26,CN(CC(=O)Nc1ccc(N2CCOCC2)cc1)C(=O)c1cccc(Cl)c1Cl,12.4
27,CC(=O)Oc1oc(-c2ccccc2)nc1C=Nc1ccc(N(C)C)cc1,13.8
